Source: publication PMC7819943, “Rice protein-binding microarrays: a tool to detect cis-acting elements near promoter regions in rice”
The other results are listed elsewhere or left out.

Each sequence was assayed against T1, OsWOX13 (Oryza sativa, UniProt Q5QMM3 1-267) (assay: protein-binding microarray (RPBM); PBS, 2% BSA, 51.3 ng/ul salmon testes DNA, 50 uM zinc acetate, 200 nM TF, 25 C, 1 h; high values mean tight binding). Details: protein: recombinant; tags: N-terminal polyhistidine and DsRed monomer fusion (pET32a); label: CyDye5-dUTP incorporated in the synthesized complementary strand; 3' TTTTT single-stranded linker to array surface; dsDNA, one strand shown.
T1 sequence: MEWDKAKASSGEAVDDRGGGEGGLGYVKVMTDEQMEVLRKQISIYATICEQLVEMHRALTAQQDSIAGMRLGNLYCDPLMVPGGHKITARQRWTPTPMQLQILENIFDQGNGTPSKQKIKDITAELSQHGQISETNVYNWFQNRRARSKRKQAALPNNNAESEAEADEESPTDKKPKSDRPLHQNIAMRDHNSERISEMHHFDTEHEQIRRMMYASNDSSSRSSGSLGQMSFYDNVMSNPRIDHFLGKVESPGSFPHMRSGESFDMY
Method in brief: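 A custom Agilent array was converted to double-stranded form by primer extension with Cy5-dUTP and blocked with 2% BSA. Protein at 200 nM in PBS with 2% BSA, salmon testes DNA and 50 µM zinc acetate was applied for 1 h at 25 °C, followed by washing. The proteins were polyhistidine–DsRed N-terminal fusions of transcription factors, expressed in E. coli BL21-CodonPlus and Ni–NTA-purified. The binding signal is per-feature fluorescence intensity (arbitrary units) from an Axon 4000B scanner.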
With “CGATTGATTCCCTTCCTGATCTATGCTCCTGACCACTACTCGGAGTCACCTAGTGCAG” the binding signal was 6020 fluorescence intensity (a.u.).
“TTAAATTAGCAGAGGGAGATCTCGACTGGTCTCTCTGAGTCGGAGTCACCTAGTGCAG” was tested, and the binding signal was 11100 fluorescence intensity (a.u.).
“ACGTTAAAATTAAAAGTTTAATTGAAATTGAAATGATGTGCGGAGTCACCTAGTGCAG” was tested, and the binding signal was 23600 fluorescence intensity (a.u.).
With “ATAATTGGTAAAGATGGATTCAAAATATTATTAATAATTGCGGAGTCACCTAGTGCAG” the binding signal was 26200 fluorescence intensity (a.u.).
“AATAGTACTAATTAATTTCATGCTACACCAAACTTTTCTCCGGAGTCACCTAGTGCAG” was tested, and the binding signal was 12400 fluorescence intensity (a.u.).
For “TTAATTGATTGAATCACATCCTTCCGGATTGTTTTGATCCCGGAGTCACCTAGTGCAG”, the binding signal was 40800 fluorescence intensity (a.u.).
“AATCAATCAGTGCGATTGCTGATGCATATAAAGAAGGGCTCGGAGTCACCTAGTGCAG” was tested, and the binding signal was 42800 fluorescence intensity (a.u.).
“TCTGTATAGATAGAGAAAATTAACTAGGATAGGGACGGATCGGAGTCACCTAGTGCAG” was tested, and the binding signal was 4540 fluorescence intensity (a.u.).
With “CTAGATGTAATTACTCTTTCCGTCCCAAAATATAATAACTCGGAGTCACCTAGTGCAG” the binding signal was 8360 fluorescence intensity (a.u.).
For “AACCACTAAATTATTTATAGATGACAGGATTACAGTATGTCGGAGTCACCTAGTGCAG”, the binding signal was 9900 fluorescence intensity (a.u.).
For “AGATTGATCAGTGGAGCTTAATTTGCAAATTAACCAACATCGGAGTCACCTAGTGCAG”, the binding signal was 19300 fluorescence intensity (a.u.).
For “TTGAAAGCCTTAATTAGACACCCTTAATGCTCCAAGTATGCGGAGTCACCTAGTGCAG”, the binding signal was 6260 fluorescence intensity (a.u.).
For “CAAGATGGGTCGGGTTGGGTGGGGTTACTCGCACTAGCACCGGAGTCACCTAGTGCAG”, the binding signal was 3150 fluorescence intensity (a.u.).
In the case of “CATCGTCATGACATGGAGTAATTGCATATGCAAACATTATCGGAGTCACCTAGTGCAG”, the binding signal is reported as 4860 fluorescence intensity (a.u.).
For “TCCACAGATTGAGGAATCCGAGCAACAAATATCCTAGTAGCGGAGTCACCTAGTGCAG”, the binding signal was 11900 fluorescence intensity (a.u.).
For “ACAAGTAATTTAAAACGGAAGTAGTATAGCAGTGATGTTTCGGAGTCACCTAGTGCAG”, the binding signal was 4460 fluorescence intensity (a.u.).
“CATGATTAGCCATAAGTGCTACAGTAACCCACATGTGCTACGGAGTCACCTAGTGCAG” was tested, and the binding signal was 34300 fluorescence intensity (a.u.).
“CACCATTGCATGATTGCATCTGCATCACTGCATGCCAACGCGGAGTCACCTAGTGCAG” was tested, and the binding signal was 5680 fluorescence intensity (a.u.).
“ACATAGATTAGTAAGTGAAACAAAACATAGACGGCAAGCCCGGAGTCACCTAGTGCAG” was tested, and the binding signal was 11700 fluorescence intensity (a.u.).
In the case of “CCTAATGACGTCATCAAGCGACGTGCACTCTAAACACCATCGGAGTCACCTAGTGCAG”, the binding signal is reported as 10100 fluorescence intensity (a.u.).
For “AGCACAAATTAAATGGTAAATCCTAAAAGCATTGCGTATTCGGAGTCACCTAGTGCAG”, the binding signal was 17600 fluorescence intensity (a.u.).
In the case of “CACATGCACATATATATTGATAGATCATCTATACATAGATCGGAGTCACCTAGTGCAG”, the binding signal is reported as 3360 fluorescence intensity (a.u.).
For “CGTATACATTTTACCATAATTTATATAATAATTGGTTTTACGGAGTCACCTAGTGCAG”, the binding signal was 8690 fluorescence intensity (a.u.).
With “CAGACAGATAGAAAGAGACCTATATATATCGCCGATCAATCGGAGTCACCTAGTGCAG” the binding signal was 3330 fluorescence intensity (a.u.).
With “TAAATTTAATGTTATATCTGTAATTTTGTGACACACCGAACGGAGTCACCTAGTGCAG” the binding signal was 8220 fluorescence intensity (a.u.).
With “TATTGTGATTTAAGGATACGAATCAGATTCGATCACTAGTCGGAGTCACCTAGTGCAG” the binding signal was 6190 fluorescence intensity (a.u.).
With “CTAGATTAGATTTGCACGGCATCACATGTAGTGCACGCGACGGAGTCACCTAGTGCAG” the binding signal was 36500 fluorescence intensity (a.u.).
“ATTATCAATTTGTTATTGTGTACCTCGGTTGACTCCTGGACGGAGTCACCTAGTGCAG” was tested, and the binding signal was 7760 fluorescence intensity (a.u.).
With “TGCGATTATTAGCTTGTAATGATACTATCTGATCATGCAACGGAGTCACCTAGTGCAG” the binding signal was 3450 fluorescence intensity (a.u.).
For “TCAGACAAATTAAGTTTTAGCTTAGCTTATCACTTAACGGCGGAGTCACCTAGTGCAG”, the binding signal was 7680 fluorescence intensity (a.u.).
In the case of “AGGATGATTGATTGATAAATAAAGAAGAAACAGATTCTGCCGGAGTCACCTAGTGCAG”, the binding signal is reported as 48000 fluorescence intensity (a.u.).
For “TTCTAAATTGTATTTCTATATGGACTCTAGTCTTCTCTTCCGGAGTCACCTAGTGCAG”, the binding signal was 4600 fluorescence intensity (a.u.).
For “CATATAACCAATCATGTATGGAAGAATAGGGAGTCACACACGGAGTCACCTAGTGCAG”, the binding signal was 7910 fluorescence intensity (a.u.).
“TCTATACGTTTCAATTTAAATTTGACTACGGCTTATAAGACGGAGTCACCTAGTGCAG” was tested, and the binding signal was 7000 fluorescence intensity (a.u.).
In the case of “CACAAATTAAAAGTCACTTTGGCTCTGTTTGGCAAATGGGCGGAGTCACCTAGTGCAG”, the binding signal is reported as 10300 fluorescence intensity (a.u.).
In the case of “TTATCAATAATAATTGCCCGTGCAAAGCATGAGTTGATGGCGGAGTCACCTAGTGCAG”, the binding signal is reported as 5280 fluorescence intensity (a.u.).
In the case of “TAGGTTAAATTTGAACTTACATGTTTGTGACGTGATACATCGGAGTCACCTAGTGCAG”, the binding signal is reported as 3750 fluorescence intensity (a.u.).
In the case of “AAGAGAGACAGATTTAAACCAGCTCAGCCAATCCCCTCCCCGGAGTCACCTAGTGCAG”, the binding signal is reported as 4530 fluorescence intensity (a.u.).
With “TGTGATTGCACATATATTTTCCTATTCCACATATTCCACACGGAGTCACCTAGTGCAG” the binding signal was 34000 fluorescence intensity (a.u.).
For “ATATAATTAAAGCACAAACTGAAGGAGATCGAAACCAAAACGGAGTCACCTAGTGCAG”, the binding signal was 10800 fluorescence intensity (a.u.).
For “TTTACATGATATAACTGAAACAAGTCTCTATTGCAATTAGCGGAGTCACCTAGTGCAG”, the binding signal was 4640 fluorescence intensity (a.u.).
With “GGCACATGGAAATGCTGATTGAGACCACTGTAACTTCTGCCGGAGTCACCTAGTGCAG” the binding signal was 20300 fluorescence intensity (a.u.).
In the case of “TCAACTAAACTTATAATTTTAGCGTGAAGTAAACACACCCCGGAGTCACCTAGTGCAG”, the binding signal is reported as 3760 fluorescence intensity (a.u.).
With “CGGATTGGTAAAACCGGGACTACAGAAGGTTATGAACCGGCGGAGTCACCTAGTGCAG” the binding signal was 3150 fluorescence intensity (a.u.).
With “GCATTAGTTAATTGGCTTTATTCAACCTGGATTGTTTAAGCGGAGTCACCTAGTGCAG” the binding signal was 24400 fluorescence intensity (a.u.).
With “CTTGATTTGCTTATGTAGTACTACTTCACCCGGCCCGTGCCGGAGTCACCTAGTGCAG” the binding signal was 28500 fluorescence intensity (a.u.).
With “TTTTATTGACTAATTTATGGGGTTTGTTTTGCCACTTTTGCGGAGTCACCTAGTGCAG” the binding signal was 36800 fluorescence intensity (a.u.).
With “TCTAATGGAAGATTTGAAGAAAGAGTGTATATGTGTGCATCGGAGTCACCTAGTGCAG” the binding signal was 10200 fluorescence intensity (a.u.).
“ATTAATATGATTAAATAGAAATTAGTTACTCTCTTTGTCCCGGAGTCACCTAGTGCAG” was tested, and the binding signal was 28500 fluorescence intensity (a.u.).
In the case of “GAGACGAATTTATTAAGCCTAATTAATTCATTATTAGCACCGGAGTCACCTAGTGCAG”, the binding signal is reported as 10800 fluorescence intensity (a.u.).
In the case of “AAGCTTGATGGGAATGATGATACCAATCTGACGGCCGAGACGGAGTCACCTAGTGCAG”, the binding signal is reported as 14500 fluorescence intensity (a.u.).
With “GAAATGTGAATGACTATCTAGATTAGGATTTAGGAACCAGCGGAGTCACCTAGTGCAG” the binding signal was 6180 fluorescence intensity (a.u.).
In the case of “ATTGATTGGCTGAGCTCCAGCTCCAGGAGGGGTGGAGTTGCGGAGTCACCTAGTGCAG”, the binding signal is reported as 42300 fluorescence intensity (a.u.).
With “ATAATCTGTTAATTTCAGTAAGTCTCACCTTATATGCTTCCGGAGTCACCTAGTGCAG” the binding signal was 5580 fluorescence intensity (a.u.).
